Assay results taken from PubChem BioAssay AID463173 (ICCB-Longwood Screening Facility, Harvard Medical School, 2010).
In all, about 52,000 compounds went through this assay and about 1,700 (3.3%) were called active. Rule as the data show it: active = survival mostly below about 52% (no sharp cut-off); inactive = mostly above about 56%. The list shows a part of the results.

The compounds below were run on Wild type (assay: S. aureus survival, RN4220 and DeltatarO strains – OD600, teichoic acid synthesis inhibitors, primary screen (AID 463173)). Conditions: S. aureus RN4220 wild type/DeltatarO growth, OD600, 18 h, hits give low values, screened at 18.75 µg/mL (by protocol).
`Cc1ccc(NCc2n[nH]c(=S)n2C)cc1Cl` was tested, and the survival was inactive: 104%. For `CCOc1ccc(C(=O)O)o1`, the survival was inactive: 100%. In the case of `O=C(O)CSc1nc2c(c(C(F)(F)F)n1)CCc1ccccc1-2`, the survival was inactive: 101%. With `CCN1CCN(C(c2ccccc2)c2c(O)cc(C)n(CCOC)c2=O)CC1` (centres undefined) the survival was inactive: 91%. With `Cc1csc(-c2coc3cc(O)cc(C)c3c2=O)n1` the survival was inactive: 87%. `COCCCNc1cc(C)nc2ccccc12` was tested, and the survival was inactive: 121%. In the case of `COc1ccc(S(=O)(=O)Cc2ccc(C(=O)NC3CCCCC3)o2)cc1`, the survival was inactive: 124%. `COC(=O)Cn1cnc2c1c(=O)n(C)c(=O)n2C` was tested, and the survival was inactive: 118%. For `CCCCC(=O)Nc1ccc(C(=O)OCc2cc(=O)n3nc(C4CC4)sc3n2)cc1`, the survival was inactive: 119%. For `COC(=O)C1=C(c2ccccc2)c2ccccc2S(=O)(=O)N1CC(=O)Nc1ccccc1C(F)(F)F`, the survival was inactive: 65%. With `Cc1cccc(N2CCN(c3ccc(C(=O)O)cc3NC(=O)c3ccccc3F)CC2C)c1` (centres undefined) the survival was inactive: 69%. For `Cn1c(=O)n(CCc2ccccc2)c(=O)c2c1nc1n2CCN1c1ccc(Cl)cc1`, the survival was inactive: 85%. In the case of `CC(C(=O)Nc1ccccc1C(F)(F)F)n1nc(-c2ccccc2)c2c(c1=O)CCCC2` (centres undefined), the survival was inactive: 69%. With `COc1cc(SC#N)ccc1N=Cc1c(O)n(-c2cccc(C)c2)c(=O)[nH]c1=O` the survival was inactive: 102%. `Cc1cc(C)c2c(-n3cccc3)c(C(=O)NCCc3ccccc3)sc2n1` was tested, and the survival was inactive: 86%. In the case of `CCN(CC)c1ccc(C(=O)NCc2ccc3c(c2)CCN3C(C)=O)cc1`, the survival was inactive: 68%. With `CC(C)CC(=O)Nc1c(C(=O)N2CCN(c3ccccc3F)CC2)oc2ccccc12` the survival was inactive: 82%. With `COC(=O)c1c(O)c[nH]c1C` the survival was inactive: 110%. With `CC(=O)c1ccc(N2CCN(C(=O)Nc3cccc(F)c3)CC2)cc1` the survival was inactive: 79%. In the case of `CC(C)Oc1ccc(CNC(=O)CCCn2c(=O)c3cccn3c3cccnc32)cc1`, the survival was inactive: 111%. `COc1cccc(-c2nnc3n(Cc4ccccc4Cl)c(=O)c4ccccc4n23)c1O` was tested, and the survival was inactive: 86%. For `O=C(NCc1ccc2c(c1)CCN2C(=O)c1ccncc1)c1ccc(Cl)cc1`, the survival was inactive: 78%. With `Cc1c(Cl)cccc1NC(=O)CN1C(=O)CCn2nc(-c3cccn3C)cc21` the survival was inactive: 76%. For `Cc1ccc(S(=O)(=O)Nc2c(C)nn(C)c2C)cc1`, the survival was inactive: 93%. For `COCCN(CCOC)C(=O)c1cc2c(=O)n3ccccc3nc2n1C`, the survival was inactive: 84%. `COc1cc(-c2nc3ccc(C)cn3c2Nc2ccc(Cl)cc2)ccc1O` was tested, and the survival was inactive: 75%. With `COc1cccc(C(=O)NC2=NC(c3ccc(N(C)C)cc3)CC(=O)N2)c1` (centres undefined) the survival was inactive: 64%. In the case of `O=C(CSc1nc(-c2ccccc2)cn1-c1ccccc1)Nc1ccccc1`, the survival was inactive: 68%. In the case of `CCn1c(NCc2cccc(Cl)c2)nc2ccccc21`, the survival was inactive: 97%. In the case of `O=C(NCCCN1CCCCC1)c1cc(Sc2ccc(Cl)cc2)nc2ccccc12`, the survival was active: -1%. In the case of `Cc1ccc(Cn2c(C(=O)O)c(CNCCc3ccco3)c3ccc(C)cc32)cc1`, the survival was inactive: 82%. In the case of `Cc1cc(C)c(C(=O)Nc2ccccc2)c(SCC(=O)Nc2ccc(Br)cc2C)n1`, the survival was inactive: 72%. `O=C1C2C3C=CC(C3)C2C(=O)N1CN(Cc1ccccc1)CN1C(=O)C2C3C=CC(C3)C2C1=O` (centres undefined) was tested, and the survival was inactive: 113%. With `COc1ccc(-n2c(=O)c3ccc(C(=O)NCc4ccc(C)cc4)cc3n(CC(=O)Nc3ccc(C)cc3)c2=O)cc1` the survival was inactive: 77%. For `O=S(=O)(c1ccc(Br)cc1)c1nnn2c1nc(NCc1cccs1)c1sccc12`, the survival was inactive: 75%. With `CC(=O)c1ccc(N2CCN(C3C(=O)c4ccccc4N3C(C)=O)CC2)cc1` (centres undefined) the survival was inactive: 68%. With `COc1ccc(-c2cc(C(=O)NCCc3ccccc3)c3cc(C(C)C)ccc3n2)cc1` the survival was inactive: 71%. `COc1ccc(-n2cc(C(=O)NCc3cccc(OC)c3)c3ccccc3c2=O)cc1` was tested, and the survival was inactive: 111%. For `CC(=O)N/N=C/c1ccc(C)c(C)c1C`, the survival was inactive: 107%. `CCOc1cc(-c2nc(-c3ccc(-c4ccc(OC)cc4)nc3OC)no2)cc(OCC)c1OCC` was tested, and the survival was inactive: 59%. With `COCCCNC(=O)C1CCN(c2cc(C)nc3c(-c4ccc(OC)c(OC)c4)c(C)nn23)CC1` the survival was inactive: 82%. In the case of `COc1ccc(Cl)cc1NC(=O)c1nn(C)c2c1CS(=O)(=O)c1ccccc1-2`, the survival was inactive: 83%. `COc1ccc2nc(NC(=O)c3ccc(S(=O)(=O)N4CCCC(C)C4)cc3)sc2c1` (centres undefined) was tested, and the survival was inactive: 75%. In the case of `O=C(CN1CCC(N2CCCCC2)CC1)c1ccc(F)cc1`, the survival was inactive: 110%. In the case of `O=C(CSc1nc(=O)n(Cc2ccco2)c2c1CCC2)NCc1ccc(F)cc1`, the survival was inactive: 70%. With `CC1=C(C(=O)Nc2ccccc2C)C(c2ccccn2)n2nc(SCc3ccccc3F)nc2N1` (centres undefined) the survival was inactive: 75%. With `CCc1ccc(NC(=O)CSc2nc(=O)n(Cc3ccco3)c3c2CCC3)cc1` the survival was inactive: 73%. With `Cc1nc2nc(NC(=O)c3ccc(Cl)cc3)[nH]n2c(=O)c1Cc1ccccc1` the survival was inactive: 93%. With `N/C(=N\OC(=O)c1cccs1)c1ccccc1` the survival was inactive: 105%. With `Cc1ccc(S(=O)(=O)c2nnn3c2nc(N2CCN(c4ccccc4F)CC2)c2ccccc23)cc1C` the survival was inactive: 73%. In the case of `O=c1[nH]c(SCc2ccc(Br)cc2)nc2c1CCCC2`, the survival was inactive: 83%. `CC(NC(=O)Cn1c(-c2cccs2)cc2cc(F)ccc21)c1ccccc1` (centres undefined) was tested, and the survival was inactive: 67%. For `O=C(NC1CC(=O)N(c2ccc(Cl)cc2)C1)c1cccs1` (centres undefined), the survival was inactive: 70%. With `CCC(C)NC(=O)c1c(-c2ccccc2)c(-c2ccccc2)nn(C)c1=O` (centres undefined) the survival was inactive: 88%. In the case of `O=C(Cn1c(=O)n(Cc2ccc3c(c2)OCO3)c(=O)c2ccc(C(=O)NC3CCCCC3)cc21)Nc1ccccc1F`, the survival was inactive: 64%. For `COc1ccc(-c2cc(C(=O)Oc3ccc(C)c(C)c3)c3ccccc3n2)cc1`, the survival was inactive: 30%. `Cc1cccn2c(=O)c3cc(C(=O)NCc4ccccc4Cl)sc3nc12` was tested, and the survival was inactive: 81%. `CC(C)(C)C(=O)CSc1nc2ccccc2[nH]1` was tested, and the survival was inactive: 113%. `CCOC(=O)c1cc(-c2ccccc2)n(CCCC(=O)Nc2ccc(C)cc2C)c1C` was tested, and the survival was inactive: 66%.
